According to US20240295544A1 (priority 2020, published 2024):
Counter-ions that a name gives are not always drawn. Where a SMILES comes first, the peptide text is derived from it. The star is where a group is joined. Cbz = O=C(OCc1ccccc1)*; CHN2 = [N-]=[N+]=C*; tBu = CC(C)(C)*

Test system: SARS-CoV-2
Assay type: cell-based

| SMILES | effect on detection of viral transcripts / viral infection in infected CMs | viral RNA detection compared to vehicle |
| --- | --- | --- |
| CCCNC(=O)[C@H]1O[C@@H]1C(=O)N[C@H](C(=O)N1CCC[C@H]1C(=O)O)[C@@H](C)CC [CA-074] | did not |  |
| CC(C)(C)Oc1ccc(C[C@H](NC(=O)[C@H](Cc2ccccc2)NC(=O)OCc2ccccc2)C(=O)C=[N+]=[N-])cc1 [Z-Phe-Tyr(tBu)-diazomethylketone] (Cbz-Phe-Tyr(tBu)-CHN2) |  | about 10% |
| Cc1cccc(/C=N/Nc2cc(N3CCOCC3)nc(OCCc3ccccn3)n2)c1 [apilimod] |  | ~0.1% |
| CO/C1=C\C(C)=C\[C@@H](C)[C@@H](O)[C@@H](C)C/C(C)=C/C=C/[C@H](OC)[C@@H]([C@@H](C)[C@@H](O)[C@H](C)[C@@]2(O)C[C@@H](O)[C@H](C)[C@@H](C(C)C)O2)OC1=O [bafilomycin] |  | 1% |
| CN(C)C(=O)COC(=O)Cc1ccc(OC(=O)c2ccc(NC(=N)N)cc2)cc1 [camostat mesylate] | did not significantly inhibit viral infection |  |
